# Measured values as given in a collection of fitness landscapes (doi:10.1016/j.celrep.2020.107928).
# Whole data set: some 81,000 sequences, median “one-hybrid fitness for binding NBS DNA” near -0.1, cut for the highest 2% near 0.36. The list shows a part of the results.
# B1: Caulobacter ParB omega fusion; a variant is named by its letters at X, in order, B8GW30 (parent)
# chain: MESVVVGEPGMSEGRRGLGRGLSALLGEVDAAPAQAPGEQLGGSREAPIEILQRNPDQPRRTFREEDLEDLSNSIREKGVLQPILVRPSPDTAGEYQIVAGERAWRAAQRAGLKTVPIMVRELDDLAVLEIGIIENVQRADLNVLEEALSYKVLMEKFERTQENIAQTIGKSXSHVANXMRLLXLPDEVQSYLVSGELTAXHARAIAAAADPVALAKQIIEGGLSVRETEALARKAPNLSAGKSKGGRPPRVKDTDTQALESDLSSVLGLDVSIDHRGSTGTLTITYATLEQLDDLCNRLTRGI
# Variants of: B1
# Test: one-hybrid fitness for binding NBS DNA (the Noc-binding site; scaled: cognate 1, non-cognate 0); higher = stronger binding
# Conditions: with NBS DNA site
# In short: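 Values were rescaled so that cognate is 1 and non-cognate is 0. Each is a fitness, the log change in a variant's read ratio to wild type from Illumina reads of plasmids before and after selection, with three replicate libraries pooled and variants under 10 reads dropped. Selection of the Caulobacter ParB libraries, four specificity codons randomised, used E. coli USO with a HIS3 reporter, site 19 bp from the promoter, on M9-minus-histidine with 0.1 mM IPTG and 5 mM 3-AT for 48 hours at 37°C.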
row,Variant,one-hybrid fitness for binding NBS DNA
1,KRRL,≤ 0.2
2,TRYL,≤ 0.2
3,LQPM,≤ 0.2
4,FAAG,≤ 0.2
5,QLQT,0.37
6,VDLA,≤ 0.2
7,QPHG,≤ 0.2
8,RITQ,≤ 0.2
9,VGSI,≤ 0.2
10,WTLC,≤ 0.2
11,RIPH,≤ 0.2
12,LCYC,≤ 0.2
13,YKPL,≤ 0.2
14,LVAW,≤ 0.2
15,PPKC,≤ 0.2
16,CEPV,≤ 0.2
17,SAYD,≤ 0.2
18,SGYV,≤ 0.2
19,RTLY,≤ 0.2
20,PYTD,≤ 0.2
21,RVPG,≤ 0.2
22,RKNW,≤ 0.2
23,VMNS,≤ 0.2
24,NPIC,≤ 0.2

row,Variant,one-hybrid fitness for binding NBS DNA
1,ARAM,≤ 0.2
2,RMHP,≤ 0.2
3,LVWL,≤ 0.2
4,DPAF,≤ 0.2
5,DTSI,≤ 0.2
6,HCLM,≤ 0.2
7,NQES,≤ 0.2
8,ESCT,≤ 0.2
9,WFCG,≤ 0.2
10,YILR,≤ 0.2
11,LFGC,≤ 0.2
12,WGNT,≤ 0.2
13,QADD,≤ 0.2
14,QCVW,≤ 0.2
15,VEQT,≤ 0.2
16,PKVT,≤ 0.2
17,THKY,≤ 0.2
18,KAQD,≤ 0.2
19,TMMR,≤ 0.2
20,TWAG,≤ 0.2
21,VQHA,≤ 0.2
22,SESE,≤ 0.2
23,VAAT,≤ 0.2
24,SMKR,≤ 0.2

row,Variant,one-hybrid fitness for binding NBS DNA
1,SAMV,≤ 0.2
2,SRYC,≤ 0.2
3,LGSK,≤ 0.2
4,RLMG,≤ 0.2
5,EPTL,≤ 0.2
6,RISM,≤ 0.2
7,HHLS,≤ 0.2
8,RTLH,≤ 0.2
9,AQKS,≤ 0.2
10,RFLC,≤ 0.2
11,QTLP,≤ 0.2
12,SHCY,≤ 0.2
13,LPAD,≤ 0.2
14,RFTM,≤ 0.2
15,RENK,≤ 0.2
16,ARKI,≤ 0.2
17,RKSD,≤ 0.2
18,YPMS,≤ 0.2
19,QWPS,≤ 0.2
20,VPPT,≤ 0.2
21,GAMS,≤ 0.2
22,DNLT,≤ 0.2
23,TQCH,≤ 0.2
24,YRMR,≤ 0.2

row,Variant,one-hybrid fitness for binding NBS DNA
1,VIIV,≤ 0.2
2,AENC,≤ 0.2
3,TCPS,≤ 0.2
4,ELTM,≤ 0.2
5,SMHV,≤ 0.2
6,SKCF,≤ 0.2
7,CYSV,≤ 0.2
8,GTSR,≤ 0.2
9,TTYN,≤ 0.2
10,HCLE,≤ 0.2
11,TACM,≤ 0.2
12,SFPN,≤ 0.2
13,FCTT,≤ 0.2
14,CAKV,≤ 0.2
15,HQKG,≤ 0.2
16,SALC,≤ 0.2
17,QTYQ,≤ 0.2
18,IYEM,≤ 0.2
19,RWYY,≤ 0.2
20,WYMC,≤ 0.2
21,RATM,≤ 0.2
22,DPDG,≤ 0.2
23,QKTE,≤ 0.2
24,RPSK,≤ 0.2

row,Variant,one-hybrid fitness for binding NBS DNA
1,QAYK,≤ 0.2
2,AYET,≤ 0.2
3,CNIS,≤ 0.2
4,TPTP,≤ 0.2
5,VHWA,≤ 0.2
6,TGKY,≤ 0.2
7,QCHV,0.214
8,EQKS,≤ 0.2
9,KSKK,≤ 0.2
10,LRTP,≤ 0.2
11,LFKF,≤ 0.2
12,MYNG,≤ 0.2
13,KASR,≤ 0.2
14,SEAW,≤ 0.2
15,LCIN,≤ 0.2
16,DAHM,≤ 0.2
17,RDNQ,≤ 0.2
18,WHKS,≤ 0.2
19,THNK,≤ 0.2
20,VDKT,≤ 0.2
21,LGSA,≤ 0.2
22,TLQG,≤ 0.2
23,RCVF,≤ 0.2
24,THMN,≤ 0.2

row,Variant,one-hybrid fitness for binding NBS DNA
1,DRQW,≤ 0.2
2,YKKR,0.319
3,FWPT,0.321
4,WFNS,≤ 0.2
5,GESV,≤ 0.2
6,NVQR,≤ 0.2
7,RMFS,0.221
8,WCPM,≤ 0.2
9,TKFG,≤ 0.2
10,VLCT,≤ 0.2
11,QYQG,≤ 0.2
12,PSVD,≤ 0.2
13,PMQL,≤ 0.2
14,LAAI,≤ 0.2
15,GQIR,≤ 0.2
16,PRSE,≤ 0.2
17,VLTL,≤ 0.2
18,NLMF,≤ 0.2
19,TRIA,≤ 0.2
20,NTAN,≤ 0.2
21,PDVT,≤ 0.2
22,RNEL,≤ 0.2
23,CVGA,≤ 0.2
24,MVYK,≤ 0.2

row,Variant,one-hybrid fitness for binding NBS DNA
1,QLDK,≤ 0.2
2,TALG,≤ 0.2
3,VMKG,≤ 0.2
4,EFIV,≤ 0.2
5,QQKH,0.657
6,SKSS,≤ 0.2
7,KSPS,≤ 0.2
8,LSEW,≤ 0.2
9,SLNH,≤ 0.2
10,LRKA,≤ 0.2
11,ACEG,≤ 0.2
12,HRLA,≤ 0.2
13,PCRR,≤ 0.2
14,NCNP,≤ 0.2
15,DPTS,≤ 0.2
16,MKSS,≤ 0.2
17,NRNT,≤ 0.2
18,ELLH,≤ 0.2
19,PQAC,≤ 0.2
20,HMPM,≤ 0.2
21,NKSS,≤ 0.2
22,HAPE,≤ 0.2
23,VWGC,≤ 0.2
24,QTKP,0.41

row,Variant,one-hybrid fitness for binding NBS DNA
1,STNR,≤ 0.2
2,TFCS,≤ 0.2
3,VFGC,≤ 0.2
4,GVQW,≤ 0.2
5,WVTK,≤ 0.2
6,TKRE,≤ 0.2
7,MNDG,≤ 0.2
8,APWT,≤ 0.2
9,CAIN,≤ 0.2
10,GRSF,≤ 0.2
11,QFAD,≤ 0.2
12,KHHC,≤ 0.2
13,WMNL,≤ 0.2
14,PFAM,≤ 0.2
15,DALY,≤ 0.2
16,DPEP,≤ 0.2
17,VMSV,≤ 0.2
18,RYYC,≤ 0.2
19,QQTT,0.464
20,GGCW,≤ 0.2
21,CVMG,≤ 0.2
22,WRRR,0.237
23,QERN,≤ 0.2
24,RVEF,≤ 0.2

row,Variant,one-hybrid fitness for binding NBS DNA
1,NFVR,≤ 0.2
2,CRQS,≤ 0.2
3,APSR,≤ 0.2
4,PMNV,≤ 0.2
5,KCSS,≤ 0.2
6,ANRW,≤ 0.2
7,LTPV,≤ 0.2
8,LDDS,≤ 0.2
9,QVTL,≤ 0.2
10,CATT,≤ 0.2
11,LLLA,≤ 0.2
12,GTRS,≤ 0.2
13,GFQC,≤ 0.2
14,QNLC,≤ 0.2
15,FACG,≤ 0.2
16,RYCI,≤ 0.2
17,KWTT,≤ 0.2
18,TLVC,≤ 0.2
19,MDLK,≤ 0.2
20,QNIM,≤ 0.2
21,TGEK,≤ 0.2
22,KPLW,≤ 0.2
23,DLDE,≤ 0.2
24,ACIV,≤ 0.2

row,Variant,one-hybrid fitness for binding NBS DNA
1,DTES,≤ 0.2
2,TMFG,≤ 0.2
3,CAYC,≤ 0.2
4,KPFS,≤ 0.2
5,AMGS,≤ 0.2
6,CETY,≤ 0.2
7,NSYR,≤ 0.2
8,TWFR,≤ 0.2
9,CWTR,≤ 0.2
10,GCHV,≤ 0.2
11,IDHG,≤ 0.2
12,HGLA,≤ 0.2
13,RHTE,≤ 0.2
14,APRG,≤ 0.2
15,TGNL,≤ 0.2
16,AAPS,≤ 0.2
17,TLSY,≤ 0.2
18,HCHS,≤ 0.2
19,SPHE,≤ 0.2
20,TEID,≤ 0.2
21,CPHW,≤ 0.2
22,LARP,≤ 0.2
23,APFG,≤ 0.2
24,RHQF,≤ 0.2

row,Variant,one-hybrid fitness for binding NBS DNA
1,PTLH,≤ 0.2
2,LYSP,≤ 0.2
3,NRRK,≤ 0.2
4,IYGR,≤ 0.2
5,LQRC,≤ 0.2
6,VVYC,≤ 0.2
7,TPMC,≤ 0.2
8,RDNN,≤ 0.2
9,ISQC,≤ 0.2
10,QILK,≤ 0.2
11,VRCR,0.246
12,QNKF,≤ 0.2
13,RSQM,≤ 0.2
14,TTPW,≤ 0.2
15,KARA,≤ 0.2
16,AIKF,≤ 0.2
17,RMHQ,≤ 0.2
18,NSPY,≤ 0.2
19,GRLK,≤ 0.2
20,RIII,≤ 0.2
21,TKWI,≤ 0.2
22,CWIT,≤ 0.2
23,SDTT,≤ 0.2
24,AETS,≤ 0.2

row,Variant,one-hybrid fitness for binding NBS DNA
1,ELGS,≤ 0.2
2,RHAY,≤ 0.2
3,DKYR,≤ 0.2
4,DKYG,≤ 0.2
5,REMR,≤ 0.2
6,ARQD,≤ 0.2
7,PNHV,≤ 0.2
8,SITS,≤ 0.2
9,RDCG,≤ 0.2
10,LFRS,≤ 0.2
11,KALS,≤ 0.2
12,HRMD,≤ 0.2
13,GAKA,≤ 0.2
14,FDSH,≤ 0.2
15,LYGF,≤ 0.2
16,GCDG,≤ 0.2
17,WKLT,≤ 0.2
18,THGC,≤ 0.2
19,FNMR,≤ 0.2
20,RPKM,≤ 0.2
21,VQMT,≤ 0.2
22,RHYT,0.287
23,KYRI,≤ 0.2
24,HEGI,≤ 0.2

row,Variant,one-hybrid fitness for binding NBS DNA
1,GPRD,≤ 0.2
2,KGTM,≤ 0.2
3,DTNW,≤ 0.2
4,LCDG,≤ 0.2
5,SQTW,≤ 0.2
6,MTAR,≤ 0.2
7,QSSV,≤ 0.2
8,QLWA,≤ 0.2
9,TSQM,≤ 0.2
10,TTEQ,≤ 0.2
11,APVL,≤ 0.2
12,WIQS,≤ 0.2
13,KSYI,≤ 0.2
14,HGSF,≤ 0.2
15,NKPT,≤ 0.2
16,VYCL,≤ 0.2
17,TTDA,≤ 0.2
18,YMVS,≤ 0.2
